The values that follow come from patent EP4563146A1 (IRBM S.P.A., priority 2023, dated 2025).

This assay addresses ZIKV NS2B-G4SG4-NS3 serine protease (Zika virus, UniProt A0A024B7W1, R1467A/R1531G). The experiment in a line: ZIKV protease inhibition assay. The assay is classed as biochemical.

Read-outs that look alike come from different tables or passages of the source.

In turn, `CN(C)C[C@H]1CC[C@H]([n+]2cc([N-]C(=O)Nc3cc(NC(=O)[C@@H](F)c4ccccc4F)cc(C(F)(F)F)c3)on2)CC1` (single isomer, unassigned) [Example 243] came in with an IC50 of under 100 nM.
Consider `O=C([N-]c1c[n+](Cc2ccccn2)no1)Nc1cc(NC(=O)C(F)(F)CN2CCCC2)cc(C(F)(F)F)c1` [Example 76], for which the IC50 (read-out: Zika - NS3 protease, 1.25 nM enzyme, 10 µM Bz-Nle-KRR-AMC substrate, 25 °C) fell in the range of 100 to 1000 nM.
